# The supplement of paper PMC8728848
# Some of the results follow.
# B1: FBG1 (Homo sapiens), Q9UK22 (protein)
# chain: MDGDGDPESVGQPEEASPEEQPEEASAEEERPEDQQEEEAAAAAAYLDELPEPLLLRVLAALPAAELVQACRLVCLRWKELVDGAPLWLLKCQQEGLVPEGGVEEERDHWQQFYFLSKRRRNLLRNPCGEEDLEGWCDVEHGGDGWRVEELPGDSGVEFTHDESVKKYFASSFEWCRKAQVIDLQAEGYWEELLDTTQPAIVVKDWYSGRSDAGCLYELTVKLLSEHENVLAEFSSGQVAVPQDSDGGGWMEISHTFTDYGPGVRFVRFEHGGQDSVYWKGWFGARVTNSSVWVEP
# Legend:
# Assay in all cases: glycan array binding signal (z-score within array); higher = stronger binding
# Settings in all cases: glycan notation: IUPAC condensed, linker removed
# [1] = molecular target: Gal(b1-4)GlcNAc(b1-6)[Gal(b1-3)]GalNAc
# Summary of the method: (§1)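 Columns mapping to the same glycan were averaged after glycan names were converted to IUPAC-condensed notation. The data come from 3228 arrays in the Consortium for Functional Glycomics database, limited to those with an available protein sequence. Binding is reported as a within-array Z-score averaged across arrays of one protein sequence and across linkers.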
# Gal3S(b1-3)GalNAc = molecular target: Gal3S(b1-3)GalNAc
# Summary of the method: as §1
# Gal3S(b1-3)GlcNAc = molecular target: Gal3S(b1-3)GlcNAc
# Summary of the method: as §1
# [2] = molecular target: Gal3S(b1-3)[Fuc(a1-4)]GlcNAc
# Summary of the method: as §1
# Gal3S(b1-4)Glc = molecular target: Gal3S(b1-4)Glc
# Summary of the method: as §1
# Gal3S(b1-4)Glc6S = molecular target: Gal3S(b1-4)Glc6S
# Summary of the method: as §1
# Gal3S(b1-4)GlcNAc = molecular target: Gal3S(b1-4)GlcNAc
# Summary of the method: as §1
# Gal4S(b1-4)GlcNAc = molecular target: Gal4S(b1-4)GlcNAc
# Summary of the method: as §1
# Gal6S(b1-4)Glc = molecular target: Gal6S(b1-4)Glc
# Summary of the method: as §1
# Gal6S(b1-4)Glc6S = molecular target: Gal6S(b1-4)Glc6S
# Summary of the method: as §1
# GalNAc(a1-3)Gal = molecular target: GalNAc(a1-3)Gal
# Summary of the method: as §1
# GalNAc(a1-3)GalNAc = molecular target: GalNAc(a1-3)GalNAc
# Summary of the method: as §1
# GalNAc(b1-3)GalNAc = molecular target: GalNAc(b1-3)GalNAc
# Summary of the method: as §1
# GalNAc(b1-4)GlcNAc = molecular target: GalNAc(b1-4)GlcNAc
# Summary of the method: as §1
# Glc(a1-4)Glc = molecular target: Glc(a1-4)Glc
# Summary of the method: as §1
# Glc(b1-4)Glc = molecular target: Glc(b1-4)Glc
# Summary of the method: as §1
# Glc(b1-6)Glc = molecular target: Glc(b1-6)Glc
# Summary of the method: as §1
# [3] = molecular target: GlcNAc(b1-2)Gal(b1-3)GalNAc
# Summary of the method: as §1
# GlcNAc(b1-3)Gal = molecular target: GlcNAc(b1-3)Gal
# Summary of the method: as §1
# [4] = molecular target: GlcNAc(b1-3)Gal(b1-3)GalNAc
# Summary of the method: as §1
# GlcNAc(b1-3)Gal(b1-4)Glc = molecular target: GlcNAc(b1-3)Gal(b1-4)Glc
# Summary of the method: as §1
# [5] = molecular target: GlcNAc(b1-3)Gal(b1-4)GlcNAc
# Summary of the method: as §1
# [6] = molecular target: GlcNAc(b1-3)[GlcNAc(b1-6)]GalNAc
# Summary of the method: as §1
# [7] = molecular target: GlcNAc(b1-3)[GlcNAc(b1-6)]GlcNAc(b1-4)GlcNAc
# Summary of the method: as §1
# [8] = molecular target: GlcNAc(b1-4)GlcNAc(b1-4)GlcNAc
# Summary of the method: as §1
# [9] = molecular target: GlcNAc(b1-4)[GlcNAc(b1-6)]GalNAc
# Summary of the method: as §1
# GlcNAc(b1-6)GalNAc = molecular target: GlcNAc(b1-6)GalNAc
# Summary of the method: as §1
# Kdn(a2-3)Gal(b1-3)GlcNAc = molecular target: Kdn(a2-3)Gal(b1-3)GlcNAc
# Summary of the method: as §1
# Kdn(a2-3)Gal(b1-4)GlcNAc = molecular target: Kdn(a2-3)Gal(b1-4)GlcNAc
# Summary of the method: as §1
# [10] = molecular target: Man(a1-2)Man(a1-2)Man(a1-3)Man
# Summary of the method: as §1
# [11] = molecular target: Man(a1-2)Man(a1-2)Man(a1-6)[Man(a1-3)]Man
# Summary of the method: as §1
# Man(a1-2)Man(a1-3)Man = molecular target: Man(a1-2)Man(a1-3)Man
# Summary of the method: as §1
# [12] = molecular target: Man(a1-2)Man(a1-3)[Man(a1-2)Man(a1-6)]Man
# Summary of the method: as §1
# [13] = molecular target: Man(a1-2)Man(a1-3)[Man(a1-2)Man(a1-6)]Man(a1-6)[Man(a1-2)Man(a1-2)Man(a1-3)]Man(b1-4)GlcNAc(b1-4)GlcNAc
# Summary of the method: as §1
# [14] = molecular target: Man(a1-2)Man(a1-3)[Man(a1-2)Man(a1-6)]Man(a1-6)[Man(a1-3)[Man(a1-6)]Man(a1-6)]Man(b1-4)GlcNAc(b1-4)GlcNAc
# Summary of the method: as §1
# [15] = molecular target: Man(a1-2)Man(a1-3)[Man(a1-6)]Man(a1-6)[Man(a1-2)Man(a1-3)]Man(b1-4)GlcNAc(b1-4)GlcNAc
# Summary of the method: as §1
# [16] = molecular target: Man(a1-2)Man(a1-6)[Man(a1-3)]Man(a1-6)[Man(a1-2)Man(a1-2)Man(a1-3)]Man(b1-4)GlcNAc(b1-4)GlcNAc
# Summary of the method: as §1
# Man(a1-3)[Man(a1-6)]Man = molecular target: Man(a1-3)[Man(a1-6)]Man
# Summary of the method: as §1
# [17] = molecular target: Man(a1-3)[Man(a1-6)]Man(a1-6)[Man(a1-3)]Man(b1-4)GlcNAc(b1-4)GlcNAc
# Summary of the method: as §1
# Neu5Ac(a2-3)Gal = molecular target: Neu5Ac(a2-3)Gal
# Summary of the method: as §1
# [18] = molecular target: Neu5Ac(a2-3)Gal(b1-3)GalNAc
# Summary of the method: as §1
# [19] = molecular target: Neu5Ac(a2-3)Gal(b1-3)GalNAc6S
# Summary of the method: as §1
binder,measurement,setting,value
B1,glycan array binding signal (z-score),[1],-0.223
same,glycan array binding signal (z-score),Gal3S(b1-3)GalNAc,-0.195
same,glycan array binding signal (z-score),Gal3S(b1-3)GlcNAc,-0.166
same,glycan array binding signal (z-score),[2],-0.207
same,glycan array binding signal (z-score),Gal3S(b1-4)Glc,-0.236
same,glycan array binding signal (z-score),Gal3S(b1-4)Glc6S,-0.196
same,glycan array binding signal (z-score),Gal3S(b1-4)GlcNAc,-0.217
same,glycan array binding signal (z-score),Gal4S(b1-4)GlcNAc,0.19
same,glycan array binding signal (z-score),Gal6S(b1-4)Glc,-0.191
same,glycan array binding signal (z-score),Gal6S(b1-4)Glc6S,-0.115
same,glycan array binding signal (z-score),GalNAc(a1-3)Gal,-0.21
same,glycan array binding signal (z-score),GalNAc(a1-3)GalNAc,-0.264
same,glycan array binding signal (z-score),GalNAc(b1-3)GalNAc,-0.242
same,glycan array binding signal (z-score),GalNAc(b1-4)GlcNAc,-0.097
same,glycan array binding signal (z-score),Glc(a1-4)Glc,-0.213
same,glycan array binding signal (z-score),Glc(b1-4)Glc,-0.168
same,glycan array binding signal (z-score),Glc(b1-6)Glc,-0.233
same,glycan array binding signal (z-score),[3],-0.226
same,glycan array binding signal (z-score),GlcNAc(b1-3)Gal,-0.219
same,glycan array binding signal (z-score),[4],-0.202
same,glycan array binding signal (z-score),GlcNAc(b1-3)Gal(b1-4)Glc,-0.176
same,glycan array binding signal (z-score),[5],-0.196
same,glycan array binding signal (z-score),[6],-0.242
same,glycan array binding signal (z-score),[7],-0.188
same,glycan array binding signal (z-score),[8],-0.107
same,glycan array binding signal (z-score),[9],-0.206
same,glycan array binding signal (z-score),GlcNAc(b1-6)GalNAc,-0.232
same,glycan array binding signal (z-score),Kdn(a2-3)Gal(b1-3)GlcNAc,-0.237
same,glycan array binding signal (z-score),Kdn(a2-3)Gal(b1-4)GlcNAc,-0.173
same,glycan array binding signal (z-score),[10],-0.214
same,glycan array binding signal (z-score),[11],-0.202
same,glycan array binding signal (z-score),Man(a1-2)Man(a1-3)Man,-0.2
same,glycan array binding signal (z-score),[12],-0.1
same,glycan array binding signal (z-score),[13],3.64
same,glycan array binding signal (z-score),[14],4.33
same,glycan array binding signal (z-score),[15],2.86
same,glycan array binding signal (z-score),[16],4.93
same,glycan array binding signal (z-score),Man(a1-3)[Man(a1-6)]Man,-0.213
same,glycan array binding signal (z-score),[17],4.2
same,glycan array binding signal (z-score),Neu5Ac(a2-3)Gal,-0.204
same,glycan array binding signal (z-score),[18],-0.198
same,glycan array binding signal (z-score),[19],-0.22
